Experimental data taken from patent publication US20260022150A1 (KEROS THERAPEUTICS, published 2026).

T1: human GDNF family receptor alpha-1 (GFRα1) joined to an Fc domain at its C-terminus (human, UniProt P56159-2 25-445)
T1 construct: Bought from R&D Systems; also called GFRa1-hFc; human GFRα1 Fc chimera (R&D Systems); not shown: human Fc domain joined to the C-terminus of GFRα1
T1 sequence (looked up): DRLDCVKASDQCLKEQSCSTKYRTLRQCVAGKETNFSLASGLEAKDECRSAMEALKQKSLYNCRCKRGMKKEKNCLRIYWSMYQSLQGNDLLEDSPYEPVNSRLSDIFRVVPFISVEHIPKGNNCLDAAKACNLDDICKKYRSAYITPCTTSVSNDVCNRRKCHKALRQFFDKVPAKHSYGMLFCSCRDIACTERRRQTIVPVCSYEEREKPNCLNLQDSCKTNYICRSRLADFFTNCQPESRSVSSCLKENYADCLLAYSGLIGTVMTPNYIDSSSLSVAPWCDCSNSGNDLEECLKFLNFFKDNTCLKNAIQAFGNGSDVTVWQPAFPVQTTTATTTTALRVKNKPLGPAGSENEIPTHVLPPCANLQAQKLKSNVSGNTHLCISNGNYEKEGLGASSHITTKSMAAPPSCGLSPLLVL

B1: Fusion polypeptide 2 (Fc-GGG-hGDNF92-211) (Fc fusion)
chain: [no letters for human IgG1 Fc]GGGNRQAAAANPENSRGKGRRGQRGKNRGCVLTAIHLNVTDLGLGYETKEELIFRYCSGSCDAAETTYDKILKNLSRNRRLVSDKVGQACCRPIAFDDDLSFLDDNLVYHILRKHSAKRCGCI
B2: Fusion polypeptide 3 (Fc-GGG-hGDNF110-211) (Fc fusion)
chain: [no letters for human IgG1 Fc]GGGGQRGKNRGCVLTAIHLNVTDLGLGYETKEELIFRYCSGSCDAAETTYDKILKNLSRNRRLVSDKVGQACCRPIAFDDDLSFLDDNLVYHILRKHSAKRCGCI
B3: Fusion polypeptide 4 (Fc-GGG-hGDNF117-211) (Fc fusion)
chain: [no letters for human IgG1 Fc]GGGGCVLTAIHLNVTDLGLGYETKEELIFRYCSGSCDAAETTYDKILKNLSRNRRLVSDKVGQACCRPIAFDDDLSFLDDNLVYHILRKHSAKRCGCI
B4: Fusion polypeptide 6 (Fc (T366W)-GGG-hGDNF117-211) (Fc fusion)
chain: [no letters for human IgG1 Fc with changes]GGGGCVLTAIHLNVTDLGLGYETKEELIFRYCSGSCDAAETTYDKILKNLSRNRRLVSDKVGQACCRPIAFDDDLSFLDDNLVYHILRKHSAKRCGCI

Target: T1, human GDNF family receptor alpha-1 …
Test: SPR; GFRα1-Fc chimera captured on CM5 chip by His-tag capture kit, fusion polypeptide flowed over; apparent KD (KD,app)
Excerpt: Surface Plasmon Resonance (SPR) was used to determine the binding affinities of the GDNF fusion polypeptides to GFRα1. The GDNF fusion polypeptides in this example include fusion polypeptides 2-4 as described in Example 1, as well as Fc (T366W)-GGG-hGDNF₁₁₇₋₂₁₁ (SEQ ID NO: 37) (fusion polypeptide 6) which has an Fc domain having the amino acid substitution T366W (relative to the sequence of human IgG1) joined to the N-terminus of the GDNF variant having amino acids 117-211 of SEQ ID NO: 1 through a GGG linker. The SPR assay was configured to capture human GFRα1, GFRα2, and GFRα3 Fc chimeras (R&D Systems) onto a CM5 chip surface using His-tag capture kit (GE Healthcare) to appropriate levels for kinetic analysis. GDNF fusion polypeptides were flowed over the immobilized GFRs to measure the kinetics of GDNF fusion polypeptide and GFR association and dissociation. The binding of various concentrations of GDNF fusion polypeptides was measured in HBS-EP buffer (GE Healthcare) at a flow rate of 30 μL/min. Binding curves were fitted using Scrubber2 software to obtain apparent binding affinities and kinetic constants.

Compared with B1, B2 is 5.4-fold higher in Kd: 0.16 nM for the first, 0.87 nM for the second. The first binds more tightly here.

B3 and B4 are within 1.5-fold of each other in Kd: 3.8 nM for the first, 4.9 nM for the second.
